This is an account of results in a collection of fitness landscapes (doi:10.1126/science.1257360).

B1: PhoQ; a variant is named by its letters at X, in order, P23837 (parent)
chain: MKKLLRLFFPLSLRVRFLLATAAVVLVLSLAYGMVALIGYSVSFDKTTFRLLRGESNLFYTLAKWENNKLHVELPENIDKQSPTMTLIYDENGQLLWAQRDVPWLMKMIQPDWLKSNGFHEIEADVNDTSLLLSGDHSIQQQLQEVREDDDDAEMTHSVAVNVYPATSRMPKLTIVVVDTIPVELKSSYMVWSWFIYVLSANLLLVIPLLWVAAWWSLRPIEALAKEVRELEEHNRELLNPATTRELTSLVRNLNRLLKSERERYDKYRTTLTDLTHSLKTPLXXLQXXLRSLRSEKMSVSDAEPVMLEQISRISQQIGYYLHRASMRGGTLLSRELHPVAPLLDNLTSALNKVYQRKGVNISLDISPEISFVGEQNDFVEVMGNVLDNACKYCLEFVEISARQTDEHLYIVVEDDGPGIPLSKREVIFDRGQRVDTLRPGQGVGLAVAREITEQYEGKIVAGESMLGGARMEVIFGRQHSAPKDE

The other results are listed elsewhere or left out.

In the assay the parent is B1. The assay can be described thus: enrichment ratio after two sorts for PhoP signalling (ratio (wild type AVST 3.29)); higher = more functional. The settings on record: with PhoP (E. coli).
Take STLC: the enrichment ratio turned out to be 13.2.
To SHER belongs at most 0.25; to VLMG, at most 0.25.
To VSEP belongs at most 0.25; to SKLY, 5.45.
For LFIM, the enrichment ratio is at most 0.25.
Under NSAQ stands at most 0.25; under MTCA, at most 0.25.
Under TSET stands 3.28; under RLIP, at most 0.25.
Under LFYV stands at most 0.25; under EAWS, at most 0.25; under SDIK, at most 0.25.
For the variant RQMF, the enrichment ratio is at most 0.25.
To VFAM belongs at most 0.25; to YQSM, at most 0.25; to GFTM, at most 0.25.
Consider NTSF, for which the enrichment ratio was at most 0.25.
Under NCYL stands at most 0.25; under PTEE, at most 0.25; under IIFK, at most 0.25.
With ALCL, the enrichment ratio is 9.88.
Under IPVR stands at most 0.25.
Regarding MGYK, the enrichment ratio was at most 0.25.
In the case of MTYS, the enrichment ratio is at most 0.25.
Under WHMG stands at most 0.25.
To IIIC belongs at most 0.25; to YMNF, at most 0.25.
As for PQQT, the enrichment ratio is at most 0.25.
Under PWWD stands at most 0.25; under MPWV, at most 0.25; under QGLM, 3.62.
To SLAY belongs 9.69; to DSWC, at most 0.25; to AIRR, at most 0.25.
To QCGL belongs 4.14; to QHRW, at most 0.25; to YMKT, at most 0.25.
Take FNDL: the enrichment ratio was at most 0.25.
As to REPE, the enrichment ratio was at most 0.25.
To KAIF belongs at most 0.25; to SEFF, 2.1; to VRHH, at most 0.25.
To DSSI belongs at most 0.25; to RQWF, at most 0.25.
Under RNDL stands at most 0.25; under VEWM, 1.2; under VTFT, at most 0.25.
With FNFS, the enrichment ratio was at most 0.25.
To SGMD belongs at most 0.25; to VRTK, at most 0.25; to SSHV, at most 0.25.
Under NFYP stands at most 0.25; under IRQQ, at most 0.25.
Under LLMM stands at most 0.25; under AAYI, 0.507.
For the variant EHNI, the enrichment ratio is at most 0.25.
Turning to AMDP, the enrichment ratio was at most 0.25.
Consider MQWN, for which the enrichment ratio was at most 0.25.
Under MIQP stands at most 0.25; under ARVC, at most 0.25.
To SDWC belongs at most 0.25; to LDSN, at most 0.25.
Under FRKK stands at most 0.25; under VYKR, at most 0.25.
On to YTRT, for which the enrichment ratio was found to be 0.581.
Under GCDP stands at most 0.25.
Under NMLE stands at most 0.25.
In the case of SCMG, the enrichment ratio worked out at 25.9.
Under SSLL stands 19.9; under NPRC, at most 0.25.
Under MFVT stands at most 0.25; under FDWW, at most 0.25.
Under HWYL stands at most 0.25; under GVVQ, at most 0.25; under QLSL, 1.69.
For the variant SKHW, the enrichment ratio was at most 0.25.
Under TTMI stands 6.49; under GSHT, at most 0.25; under LHRD, at most 0.25.
To IDVM belongs at most 0.25; to MIHN, at most 0.25.
To TPHE belongs at most 0.25; to APHV, at most 0.25.
For the variant KRNE, the enrichment ratio is at most 0.25.
To DRSF belongs at most 0.25; to LCPT, at most 0.25.
On to ILAF, for which the enrichment ratio is at most 0.25.
To PMPT belongs at most 0.25; to LVQM, at most 0.25; to LEMA, at most 0.25.
To PMEW belongs at most 0.25; to PMHA, at most 0.25; to MMPF, at most 0.25.
To GHDS belongs at most 0.25.
In the case of TTWH, the enrichment ratio amounted to 8.79.
Under KPHY stands at most 0.25; under RNNV, at most 0.25; under QDVH, at most 0.25.
To KHSR belongs at most 0.25.
For ARGH, the enrichment ratio was at most 0.25.
Under KYCK stands at most 0.25; under YDAP, at most 0.25.
Under FEKI stands at most 0.25; under TKRR, at most 0.25; under KSMF, at most 0.25.
Consider HWDT, for which the enrichment ratio is at most 0.25.
PART: the enrichment ratio was at most 0.25.
To KSVQ belongs at most 0.25; to PLIH, at most 0.25; to KTSD, at most 0.25.
To ATQY belongs at most 0.25; to LWGG, at most 0.25; to AVPL, 5.74.
As to PMCR, the enrichment ratio was at most 0.25.
Under FHNF stands at most 0.25; under EAPT, at most 0.25.
To MVHQ belongs at most 0.25; to LFLP, at most 0.25.
For the variant FPCV, the enrichment ratio is at most 0.25.
To WHVH belongs at most 0.25; to FATV, at most 0.25; to IWMH, at most 0.25.
To VWVP belongs at most 0.25.
To FARG belongs at most 0.25; to LKID, at most 0.25.
On to GIDC, for which the enrichment ratio was at most 0.25.
To EERN belongs at most 0.25; to KGRK, at most 0.25.
Under MASM stands 16.9.
Consider SSES, for which the enrichment ratio was at most 0.25.
Under ILEC stands at most 0.25; under QCSS, 4.78.
To YSRR belongs at most 0.25.
Under DCAI stands at most 0.25; under QIYR, at most 0.25.
For the variant SWML, the enrichment ratio is at most 0.25.
To FQIT belongs at most 0.25; to AHPW, at most 0.25.
Under FGTA stands at most 0.25.
Under YWRG stands at most 0.25; under KRIT, at most 0.25.
For IVVQ, the enrichment ratio is at most 0.25.
As for NVWD, the enrichment ratio is at most 0.25.
RIWR: the enrichment ratio was at most 0.25.
To VPEW belongs at most 0.25; to PNVL, at most 0.25; to HGCR, at most 0.25.
Consider QSEL, for which the enrichment ratio was at most 0.25.
Turning to AAPI, the enrichment ratio was 4.19.
To NQET belongs at most 0.25; to HMWC, at most 0.25; to VHDY, at most 0.25.
